# The list shows a part of the results. These are noisy estimates, calculated here from bound and input reads.
# Target: T1, Pho4 (S. cerevisiae) (UniProt P07270)
# T1 sequence: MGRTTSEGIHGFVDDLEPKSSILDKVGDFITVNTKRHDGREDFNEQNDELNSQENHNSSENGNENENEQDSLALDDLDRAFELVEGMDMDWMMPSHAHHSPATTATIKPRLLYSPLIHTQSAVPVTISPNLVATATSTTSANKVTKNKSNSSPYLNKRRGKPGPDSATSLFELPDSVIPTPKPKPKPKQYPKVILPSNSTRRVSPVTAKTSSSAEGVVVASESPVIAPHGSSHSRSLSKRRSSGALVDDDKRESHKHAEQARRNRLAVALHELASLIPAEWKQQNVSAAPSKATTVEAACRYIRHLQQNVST
# Assay: relative binding free energy (BET-seq); higher = weaker binding
# Settings: reference: library average
row,Sequence,relative binding free energy
1,CATGACACGTGGGGTA,-0.09 kcal/mol
2,TGTACCACGTGGCGTG,-0.16 kcal/mol
3,GGTGGCACGTGCAATA,0.04 kcal/mol
4,GATCGCACGTGGGATT,-0.03 kcal/mol
5,GGGAACACGTGGTAAG,0.16 kcal/mol
6,TAGAGCACGTGCATGT,-0.09 kcal/mol
7,GCTGGCACGTGTTGGA,0 kcal/mol
8,CGGGGCACGTGGCTGA,-0.31 kcal/mol
9,TTGGTCACGTGGGTTC,-0.06 kcal/mol
10,TAGTGCACGTGAGTGG,0.18 kcal/mol
11,AATGCCACGTGAGTTG,0.07 kcal/mol
12,ATGTACACGTGTTATG,0.08 kcal/mol
13,AAGTTCACGTGTTACT,0.33 kcal/mol
14,GGCAGCACGTGCGTGT,-0.11 kcal/mol
15,TCGTGCACGTGGAATG,0.06 kcal/mol
16,CGTCTCACGTGGTGAG,0.15 kcal/mol
17,AGGTTCACGTGTGGCA,0.36 kcal/mol
18,GGCCGCACGTGGTTGG,-0.2 kcal/mol
19,GTTGCCACGTGGTAAT,-0.06 kcal/mol
20,ACTCGCACGTGGTGGG,-0.19 kcal/mol
21,TGCTGCACGTGAGCGG,0.17 kcal/mol
22,GTAAACACGTGGGGTT,-0.06 kcal/mol
23,TGTGGCACGTGAAATT,0.21 kcal/mol

row,Sequence,relative binding free energy
1,GATGACACGTGTGGGG,-0.05 kcal/mol
2,ATGGCCACGTGAGTTG,0.26 kcal/mol
3,GTAGGCACGTGATTGG,0.06 kcal/mol
4,ATTATCACGTGTTCTG,-0.01 kcal/mol
5,AGAGGCACGTGTGTTC,0.04 kcal/mol
6,ATTTTCACGTGTCTAG,0.29 kcal/mol
7,GCAGACACGTGGGGGC,-0.15 kcal/mol
8,TTCCGCACGTGTTTGG,-0.08 kcal/mol
9,TTTAGCACGTGTTTAG,-0.1 kcal/mol
10,TGAAGCACGTGTAGGT,-0.03 kcal/mol
11,TGGCACACGTGCTTGG,-0.06 kcal/mol
12,TCAGGCACGTGTGGTC,-0.08 kcal/mol
13,ATGTTCACGTGAGTTA,0.38 kcal/mol
14,ATTGTCACGTGTCTGT,0.11 kcal/mol
15,AGGGGCACGTGGCGCT,-0.12 kcal/mol
16,TGAGTCACGTGATTTC,0.29 kcal/mol
17,AAAGTCACGTGGTGTG,0.08 kcal/mol
18,ATTTTCACGTGATAAT,0.35 kcal/mol
19,GCTGACACGTGGTCGG,0 kcal/mol
20,TTCGTCACGTGTGTGT,0.12 kcal/mol
21,GACGGCACGTGTTGGG,0.01 kcal/mol
22,TAGCTCACGTGGGGGT,0.04 kcal/mol
23,GTGAGCACGTGTGCGT,-0.07 kcal/mol

row,Sequence,relative binding free energy
1,GGTGGCACGTGCTTTA,-0.15 kcal/mol
2,AGGGTCACGTGTAATA,0.28 kcal/mol
3,TGAATCACGTGAGGCG,0.26 kcal/mol
4,AAAGTCACGTGAAGGG,0.29 kcal/mol
5,GTAGGCACGTGAGGTA,0.09 kcal/mol
6,TTTGTCACGTGCCTGG,-0.04 kcal/mol
7,CAGGTCACGTGGTGTA,0.01 kcal/mol
8,GAGTGCACGTGGTGGG,-0.04 kcal/mol
9,GCATGCACGTGTGGCG,0.05 kcal/mol
10,CGCGTCACGTGTTTGT,0.09 kcal/mol
11,TTTTGCACGTGCTTGG,0.04 kcal/mol
12,CCTGGCACGTGGTGTT,-0.12 kcal/mol
13,AGCGTCACGTGTTATG,-0.01 kcal/mol
14,CAAGGCACGTGGGGCA,-0.24 kcal/mol
15,TTTGACACGTGACGGG,0.08 kcal/mol
16,ATGGTCACGTGACTGC,0.3 kcal/mol
17,TAGAACACGTGATGGT,0.11 kcal/mol
18,TATATCACGTGTTCAG,0.07 kcal/mol
19,ACTGTCACGTGTGATG,0.06 kcal/mol
20,TTGAACACGTGGGCGT,0.01 kcal/mol
21,TATTCCACGTGATAGT,0.16 kcal/mol
22,TGATCCACGTGTTGGA,0.06 kcal/mol
23,AGTCTCACGTGGGAGG,0.07 kcal/mol

row,Sequence,relative binding free energy
1,AAGGGCACGTGGAGGA,-0.09 kcal/mol
2,GGACTCACGTGGGGCT,0.1 kcal/mol
3,GTAAGCACGTGGAAGG,-0.04 kcal/mol
4,GTGGTCACGTGGTTCC,0.11 kcal/mol
5,TGTTCCACGTGGTCAT,0.02 kcal/mol
6,GGGTGCACGTGAAACG,0.43 kcal/mol
7,AGATGCACGTGTGTGA,-0.01 kcal/mol
8,TTGTGCACGTGGATAA,-0.07 kcal/mol
9,TAATGCACGTGTGGTA,-0.01 kcal/mol
10,GTTTACACGTGGAAGG,0.21 kcal/mol
11,TTTAGCACGTGAGGCT,0.12 kcal/mol
12,GTGATCACGTGTGTAG,0.16 kcal/mol
13,GCGTGCACGTGTGATG,0.22 kcal/mol
14,ATGGACACGTGAGTGT,0.2 kcal/mol
15,GCTGTCACGTGGGGCG,0.01 kcal/mol
16,TTCGTCACGTGGAAGA,0.21 kcal/mol
17,GCGGGCACGTGCGTGA,-0.12 kcal/mol
18,GGAATCACGTGATGAG,0.31 kcal/mol
19,GTTAACACGTGTTTGT,0.02 kcal/mol
20,TGTAGCACGTGGTACT,-0.16 kcal/mol
21,TGATTCACGTGGATGT,0.3 kcal/mol
22,CGGTGCACGTGGGGCG,-0.14 kcal/mol
23,ACTAACACGTGGGGTG,-0.15 kcal/mol

row,Sequence,relative binding free energy
1,GGACTCACGTGCTGGT,0.15 kcal/mol
2,GGTGGCACGTGTAACG,-0.02 kcal/mol
3,GTGATCACGTGGTGTA,-0.05 kcal/mol
4,TGTGCCACGTGGCTGG,-0.16 kcal/mol
5,TTAAGCACGTGTGGCG,0.04 kcal/mol
6,AGGCGCACGTGGTGCT,-0.34 kcal/mol
7,GCCGGCACGTGGAGGG,-0.12 kcal/mol
8,TTCAGCACGTGTGGTA,-0.01 kcal/mol
9,CGTATCACGTGTGCTG,0.13 kcal/mol
10,GTATACACGTGACGTG,0.23 kcal/mol
11,TTGGACACGTGGTAGC,0.08 kcal/mol
12,CTTTTCACGTGTGTGA,0.18 kcal/mol
13,AAAAGCACGTGGTGTA,-0.14 kcal/mol
14,ATATACACGTGGATAG,0.05 kcal/mol
15,GGGTACACGTGGCGCG,0.07 kcal/mol
16,ATGGGCACGTGGAAAT,0.08 kcal/mol
17,TTTCGCACGTGAGTGG,0.13 kcal/mol
18,TGAATCACGTGATATG,0.33 kcal/mol
19,ATCTTCACGTGAGGGA,0.25 kcal/mol
20,TGTCTCACGTGAGGGC,0.28 kcal/mol
21,TATACCACGTGAGGTG,0.23 kcal/mol
22,TAGTTCACGTGTAGAT,0.38 kcal/mol
23,GGTCTCACGTGTAAGG,0.33 kcal/mol

# Reference: the BET-seq Pho4 binding data (Le et al. 2018)
